# Data taken from PubChem BioAssay AID463173 (ICCB-Longwood Screening Facility, Harvard Medical School, 2010).
# Screen size: about 52,000 compounds; about 1,700 (3.3%) were called active. No stated cut-off is given here; in the data, active means survival mostly below about 52% (no sharp cut-off); inactive means mostly above about 56%. Some of the results follow.
# System: Wild type
# Assay: S. aureus survival, RN4220 and DeltatarO strains – OD600, teichoic acid synthesis inhibitors, primary screen (AID 463173)
# Settings: S. aureus RN4220 wild type/DeltatarO growth, OD600, 18 h, hits give low values, screened at 18.75 µg/mL (by protocol)
row,Structure (SMILES),survival
1,CC1=C(C(=O)Nc2ccccc2)C(c2ccc(C)o2)NC(=S)N1 (stereo not given),inactive: 109%
2,Cc1ccc(S(=O)(=O)c2nc(-c3cccc(C)c3)oc2N2CCN(c3ccccc3)CC2)cc1,inactive: 117%
3,COC(=O)c1sc2cccc(F)c2c1S(=O)(=O)N1CCN(c2ccc(F)cc2)CC1,inactive: 71%
4,Cc1nc2nc(SCC(=O)NCCc3ccc(Cl)cc3)nn2c(C)c1Cc1ccccc1,inactive: 56%
5,CCCSc1ncc(Cl)c(C(=O)Nc2nc3ccc(OCC)cc3s2)n1,inactive: 92%
6,Cc1ccc(CNC(=O)c2ccc3c(=O)n(-c4ccccc4)c(=O)[nH]c3c2)cc1,inactive: 76%
7,COC(=O)C(CCSC)NC(=O)c1cc2c(n(-c3ccc(C)cc3)c1=O)CC(C)(C)CC2=O (stereo not given),inactive: 77%
8,CC(=O)c1cc(C(=O)Nc2cc(C)cc(C)c2)c2ccccn12,inactive: 64%
9,Cc1ccc2c(c1)cc1c(=O)n(CC(=O)NC3CCCCC3)nc(C)n12,inactive: 91%
10,CCC(C)(C)n1nnnc1CN1CCC(NC(=O)COC)CC1,inactive: 111%
11,CCc1ccccc1NC(=O)CSc1nc(-c2ccccc2OC)nc2c1Cc1c(CO)cnc(C)c1O2,inactive: 79%
12,CCOC(=O)CC1c2cc(OCC)c(OCC)cc2CCN1C(=O)Nc1cccc(Cl)c1 (stereo not given),inactive: 63%
13,Cc1cccn2c(=O)c3cc(C(=O)NCc4ccccc4)c(=N)n(CCOCCO)c3nc12,inactive: 79%
14,CCOC(=O)c1ccc(N=C2NC(=O)/C(=C/c3ccc(N4CCOCC4)cc3)S2)cc1,inactive: 107%
15,Cc1ccc(NC(=O)CSc2nc(=O)n(CCCN(C)C)c3c2CCC3)cc1F,inactive: 70%
16,CCCc1ccc(S(=O)(=O)N2CCC(Oc3ccc(-n4cnnn4)cc3)CC2)cc1,inactive: 87%
17,CNC(=O)c1ccc(Nc2nnc(-c3ccc(C)c(S(=O)(=O)N(C)C)c3)c3ccccc23)cc1,inactive: 68%
18,CCOC(=O)c1[nH]c(C)c(CCC(=O)NCc2ccccc2Cl)c1C,inactive: 90%
19,O=C(NCc1ccccc1)c1ccc2c(c1)CCN2S(=O)(=O)c1ccccc1,inactive: 82%
20,CCC(=O)Nc1ccc(-c2nnc3c4ccccc4c(C)nn23)cc1,inactive: 78%
21,COc1ccc(CCNC(=O)CCCn2c(=O)c3ccccc3n(Cc3c(C)cc(C)cc3C)c2=O)cc1OC,inactive: 91%
22,CCC(=O)N1c2ccc(S(=O)(=O)N3CCC(C)CC3)cc2CC1C (stereo not given),inactive: 69%
23,CCCCC(CC)CNC(=O)C1CCC(CNS(=O)(=O)c2cccc3nsnc23)CC1 (stereo not given),inactive: 86%

row,Structure (SMILES),survival
1,Cc1cc(C)cc(OCCCn2c(CCNC(=O)C3CCCCC3)nc3ccccc32)c1,active: 27%
2,O=C(CC1C(=O)OCCN1Cc1ccccc1)Nc1ccc(F)cc1 (stereo not given),inactive: 139%
3,Cc1ccc(C)c(NC(=O)Cn2cc(C(=O)c3ccc(Cl)cc3)c(=O)c3ccc(C)nc32)c1,inactive: 83%
4,Cc1cc(C)cc(N2CC34C=CC(O3)C(C(=O)OCC(=O)NC3CCCC3)C4C2=O)c1 (stereo not given),inactive: 108%
5,Cc1cccc(C)c1-n1ncc(C(=O)N2CCN(c3ccccn3)CC2)c1C1CCN(C(=O)OC(C)(C)C)CC1,inactive: 55%
6,N#Cc1ccc(CSc2nc3c(c(=O)[nH]2)CCC3)cc1,inactive: 94%
7,COc1cc(NC(=O)CSc2nc(-c3ccc(C)cc3)nc3c2Cc2ccccc2O3)cc(OC)c1,inactive: 98%
8,Cc1ccccc1Cn1cnc2ccccc21,inactive: 116%
9,CC1CCN(S(=O)(=O)c2ccc(C(=O)Nc3sc4c(c3C(N)=O)CC(C)(C)NC4(C)C)cc2)CC1,inactive: 83%
10,CC(C)(C)OC(=O)N1C(C(=O)O)CSC1c1cccc(Br)c1 (stereo not given),inactive: 104%
11,Cc1cccc(-c2nc3c4ccccc4nc(NCc4ccc(Cl)cc4)n3n2)c1,inactive: 47%
12,CC(=O)c1ccc(NC(=O)CSc2cn(CC(=O)N3CCCCCC3)c3ccccc23)cc1,inactive: 108%
13,CCc1ccc2oc(-c3cc(NC(=O)C(C)C)cc(C)c3O)nc2c1,inactive: 73%
14,COc1ccc(-c2cc(C(=O)NCc3ccc(F)cc3)c3c(-c4ccc(F)cc4)[nH]nc3n2)cc1OC,inactive: 71%
15,COc1ccc(NC(=O)CSc2oc(-c3ccco3)nc2S(=O)(=O)c2ccc(Br)cc2)c(OC)c1,inactive: 84%
16,CC(C)Cn1c(=O)c2sccc2n2c(CCCC(=O)NCc3ccccc3Cl)nnc12,inactive: 87%
17,C(=N\N1CCN(c2ccccn2)CC1)/c1ccco1,inactive: 93%
18,C=C(C)C1CC=C(C)/C(=N/NC(=O)c2ccncc2)C1 (stereo not given),inactive: 110%
19,COc1cccc(CNC(=O)C2CCN(S(=O)(=O)c3cn(C)cn3)CC2)c1,inactive: 68%
20,CC(=O)N1c2ccc(S(=O)(=O)N3CCCCCC3)cc2CC1C(=O)NCc1ccc(Cl)cc1 (stereo not given),inactive: 71%
21,CCOC(=O)N1CCC(NC(=O)c2cnn(-c3cccc(Cl)c3C)c2C2CCN(C(=O)OC(C)(C)C)CC2)CC1,active: -3%
22,O=C(Cn1cc(SCc2ccc(C(F)(F)F)cc2)c2ccccc21)N1CCCC1,inactive: 70%
23,CCCOc1ccc(-c2nonc2NC(=O)c2oc3ccc(C)cc3c2C)cc1OCCC,inactive: 89%

row,Structure (SMILES),survival
1,O=C(Nc1ccccc1Cl)c1cccs1,inactive: 100%
2,COc1cccc(CN2CCc3nc(N4CCN(c5ncccn5)CC4)ncc3C2)c1,inactive: 72%
3,COc1ccc(CCNc2nc(C)nc3c2nnn3Cc2ccccc2)cc1OC,inactive: 114%
4,CCc1sc(Nc2cccc(Cl)c2C)nc1-c1cc2cccc(OC)c2oc1=O,inactive: 73%
5,CN1CCN(c2nc3c(S(=O)(=O)c4ccc(Br)cc4)nnn3c3ccsc23)CC1,inactive: 83%
6,Oc1ccc(Cl)cc1C1=Nc2ccccc2N=C(c2cccc(Br)c2)C1,inactive: 137%
7,COc1ccc(OC)c(NC(=O)c2cc(CN3CCCC3)on2)c1,inactive: 73%
8,O=C(CC1C(=O)OCCN1Cc1ccccc1)Nc1cccc(C(F)(F)F)c1 (stereo not given),inactive: 81%
9,CC(=O)NC(C)C1COc2ccccc2O1 (stereo not given),inactive: 107%
10,CCOC(=O)N1CCN(c2cc3cc(OC)ccc3oc2=O)CC1,inactive: 112%
11,O=C(C1CCC(Cn2c(=O)c3sccc3n(Cc3cccc(F)c3)c2=O)CC1)N1CCCCC1 (stereo not given),inactive: 101%
12,COc1ccc(NC(=O)c2c(C)oc3ccc(O)c(CN4CCC(C)CC4)c23)cc1,inactive: 92%
13,COc1ccccc1Nc1nn2c(=O)c3ccc(C(=O)NCc4ccc(F)cc4)cc3nc2s1,inactive: 71%
14,O=C(NCCc1ccccc1)C(=O)NCC(c1cccnc1)N1CCN(c2ccccc2F)CC1 (stereo not given),inactive: 86%
15,CN(C)c1ccc(C(=O)NC2CCSC2=O)cc1 (stereo not given),inactive: 110%
16,Cc1ccc(CNC(=O)C(=O)NCC(c2ccco2)S(=O)(=O)c2cccs2)cc1 (stereo not given),inactive: 75%
17,CCN1CCN(C(c2ccc(F)cc2)c2c(O)cc(C)n(CCOC)c2=O)CC1 (stereo not given),inactive: 71%
18,COc1ccc(CCNC(=O)c2ccc(CS(=O)(=O)Cc3cccc(C)c3)o2)cc1OC,inactive: 77%
19,CC(C)CCNC(=O)C1CCN(C(=O)N2CCOc3ccc(Cl)cc32)CC1,inactive: 82%
20,Cc1nonc1OCCn1nnc(N)n1,inactive: 108%
21,COc1ccc(C(=O)Nc2ccc(-c3cc4ccccc4oc3=O)c(C)c2)cc1OC,inactive: 78%
22,CC(C)CNC(=O)C1CCCN1C(=O)Nc1ccccc1 (stereo not given),inactive: 106%
23,CCc1cccc2c(-c3ccc(F)cc3)nc(SCC(=O)Nc3ccccc3)nc12,inactive: 97%

row,Structure (SMILES),survival
1,CC1(C)CC(NC(=O)Cc2ccc(Cl)cc2)CC(C)(C)N1,inactive: 111%
2,Cc1cc(=O)oc2ccccc12,inactive: 113%
3,CSc1cccc(NC(=O)N2CCN(c3cc(-c4noc(C)n4)ccc3C)CC2)c1,inactive: 74%
4,CC(C)NC(=O)C(N)Cc1c[nH]c2ccccc12 (stereo not given),inactive: 116%
5,COc1ccc(-c2n[nH]c3c2C(c2ccc(O)cc2)N(c2ccc(Br)cc2)C3=O)cc1 (stereo not given),active: 11%
6,CCN1CCN(c2ncnc3c2cnn3-c2ccc(C)cc2)CC1,inactive: 75%
7,C=C(C)CSc1nc2sc3c(c2c(=O)n1-c1ccccc1)CCC(C)C3 (stereo not given),inactive: 67%
8,CCOC(=O)c1c(C)[nH]c(C)c1S(=O)(=O)N1CCCC(C(=O)Nc2ccc(F)cc2F)C1 (stereo not given),inactive: 63%
9,O=C(NC1CCCCCC1)c1ccc2c(c1)sc1nc(-c3ccccc3)cn12,inactive: 68%
10,COc1cc(C2CC(=O)N(c3ccccc3)C3=C2C(=O)OC3)cc(OC)c1OC (stereo not given),inactive: 69%
11,CCOc1ccc(NC(=O)CSc2cn(CC(=O)N3CCCCCC3)c3ccccc23)cc1,inactive: 96%
12,COc1ccc(CNC(=O)CC(c2ccc(OC)c(OC)c2)N2Cc3ccccc3C2=O)cc1 (stereo not given),inactive: 79%
13,CCOc1ccc(NC(=O)CSC2=Nc3ccccc3C3=NC(CC(=O)NCc4ccco4)C(=O)N23)cc1 (stereo not given),inactive: 68%
14,Cn1c(CNc2cccc(Cl)c2)nnc1SCC(=O)OC1CCCCC1,inactive: 111%
15,Cc1cc2ccccc2n1CCNC(=O)c1cccc(Cl)c1,inactive: 76%
16,COc1ccccc1CNc1ccc(-c2nc(-c3ccncc3)no2)cc1[N+](=O)[O-],inactive: 83%
17,COc1ccc(/C=N/N=C2/NC(=O)/C(=C(/C)c3nonc3C)S2)cc1OC,inactive: 102%
18,OCC(O)CN1CCc2ccccc21 (stereo not given),inactive: 105%
19,CC(C)c1ccc(NC(=O)c2cc(S(=O)(=O)NCc3ccccc3Cl)ccc2F)cc1,inactive: 101%
20,COc1ccc(C)cc1NC(=O)Cn1c(=O)ccc2cc(S(=O)(=O)N3CCCC3)ccc21,inactive: 68%
21,Cc1ccc(N(CC(=O)Nc2ccc(C)c(F)c2)S(=O)(=O)c2c(C)n[nH]c2C)cc1,inactive: 82%
